Whole data set: some 81,000 sequences, median “one-hybrid fitness for binding NBS DNA” near -0.1, cut for the highest 2% near 0.36. The list shows a part of the results.
B1: Caulobacter ParB omega fusion; a variant is named by its letters at X, in order, B8GW30 (parent)
chain: MESVVVGEPGMSEGRRGLGRGLSALLGEVDAAPAQAPGEQLGGSREAPIEILQRNPDQPRRTFREEDLEDLSNSIREKGVLQPILVRPSPDTAGEYQIVAGERAWRAAQRAGLKTVPIMVRELDDLAVLEIGIIENVQRADLNVLEEALSYKVLMEKFERTQENIAQTIGKSXSHVANXMRLLXLPDEVQSYLVSGELTAXHARAIAAAADPVALAKQIIEGGLSVRETEALARKAPNLSAGKSKGGRPPRVKDTDTQALESDLSSVLGLDVSIDHRGSTGTLTITYATLEQLDDLCNRLTRGI

Variants of: B1
Test: one-hybrid fitness for binding NBS DNA (the Noc-binding site; scaled: cognate 1, non-cognate 0); higher = stronger binding
Conditions: with NBS DNA site
Outline: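 Values were rescaled so that cognate is 1 and non-cognate is 0. Each is a fitness, the log change in a variant's read ratio to wild type from Illumina reads of plasmids before and after selection, with three replicate libraries pooled and variants under 10 reads dropped. Selection of the Caulobacter ParB libraries, four specificity codons randomised, used E. coli USO with a HIS3 reporter, site 19 bp from the promoter, on M9-minus-histidine with 0.1 mM IPTG and 5 mM 3-AT for 48 hours at 37°C.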

Variant | one-hybrid fitness for binding NBS DNA
SMSM | ≤ 0.2
QINN | ≤ 0.2
CSRN | ≤ 0.2
ARGT | ≤ 0.2
PIMF | ≤ 0.2
GARG | ≤ 0.2
KSRN | ≤ 0.2
FAIC | ≤ 0.2
VMML | ≤ 0.2
WIRG | ≤ 0.2
LFAV | ≤ 0.2
SWKT | ≤ 0.2
NVRL | ≤ 0.2
QCPE | ≤ 0.2
NTAS | ≤ 0.2
QYCL | ≤ 0.2
FAYD | ≤ 0.2
LHRG | ≤ 0.2
YADW | ≤ 0.2
HMGR | ≤ 0.2
LGKC | ≤ 0.2
NRTC | ≤ 0.2
HVLA | ≤ 0.2
HSSV | ≤ 0.2

Variant | one-hybrid fitness for binding NBS DNA
SLGC | ≤ 0.2
GIHS | ≤ 0.2
STWD | ≤ 0.2
ARQF | ≤ 0.2
WKKT | ≤ 0.2
GGAM | ≤ 0.2
PMLS | ≤ 0.2
ELRM | ≤ 0.2
AVVE | ≤ 0.2
PFDR | ≤ 0.2
APRN | ≤ 0.2
EGMG | ≤ 0.2
QSHI | ≤ 0.2
AETP | ≤ 0.2
WSTC | ≤ 0.2
HGVE | ≤ 0.2
VRAV | ≤ 0.2
LAID | ≤ 0.2
NGLY | ≤ 0.2
WLWS | ≤ 0.2
PGMR | ≤ 0.2
HDVR | ≤ 0.2
SVET | ≤ 0.2
CRTE | ≤ 0.2

Variant | one-hybrid fitness for binding NBS DNA
QAQL | ≤ 0.2
FYPR | ≤ 0.2
YLAM | ≤ 0.2
PHMW | ≤ 0.2
PKPS | ≤ 0.2
NKDL | ≤ 0.2
YFVC | ≤ 0.2
YPSR | ≤ 0.2
CLFI | ≤ 0.2
RIED | ≤ 0.2
YQES | ≤ 0.2
FRAK | ≤ 0.2
DTCR | ≤ 0.2
HRVV | ≤ 0.2
YKSN | ≤ 0.2
GLQM | ≤ 0.2
CCQV | ≤ 0.2
PVCV | ≤ 0.2
SGTA | ≤ 0.2
SPTH | ≤ 0.2
SDYL | ≤ 0.2
CFVL | ≤ 0.2
RIGN | ≤ 0.2
TYTS | ≤ 0.2

Variant | one-hybrid fitness for binding NBS DNA
WYNT | ≤ 0.2
HVPV | ≤ 0.2
CKAP | ≤ 0.2
METY | ≤ 0.2
AYDG | ≤ 0.2
WAKR | ≤ 0.2
LNGY | ≤ 0.2
WRQP | ≤ 0.2
LNDL | ≤ 0.2
MSCS | ≤ 0.2
WCKS | ≤ 0.2
IPTC | ≤ 0.2
CRLV | ≤ 0.2
DIEC | ≤ 0.2
EYER | ≤ 0.2
WNNT | ≤ 0.2
LKTQ | ≤ 0.2
RPRI | ≤ 0.2
GWTG | ≤ 0.2
EFTG | ≤ 0.2
RVEH | ≤ 0.2
LGCA | ≤ 0.2
WWLW | ≤ 0.2
QATM | ≤ 0.2

Variant | one-hybrid fitness for binding NBS DNA
TVSC | ≤ 0.2
PRTR | ≤ 0.2
RLYN | ≤ 0.2
HMYT | ≤ 0.2
FICL | ≤ 0.2
RNRA | ≤ 0.2
KYAC | ≤ 0.2
SALH | ≤ 0.2
GYAG | ≤ 0.2
MTPT | ≤ 0.2
DTKE | ≤ 0.2
RTNF | ≤ 0.2
AIRL | ≤ 0.2
KFSL | ≤ 0.2
MGFL | ≤ 0.2
VNTR | ≤ 0.2
VYGL | ≤ 0.2
TNPC | ≤ 0.2
TYSA | ≤ 0.2
CIQG | ≤ 0.2
RWFR | ≤ 0.2
GATN | ≤ 0.2
PSRD | ≤ 0.2
ALEG | ≤ 0.2

Variant | one-hybrid fitness for binding NBS DNA
HLQY | ≤ 0.2
KYKK | ≤ 0.2
LTHK | ≤ 0.2
QKQG | ≤ 0.2
RAVP | ≤ 0.2
GLKS | ≤ 0.2
PRMP | ≤ 0.2
HTKA | ≤ 0.2
SKFS | ≤ 0.2
RYSV | ≤ 0.2
AVKC | ≤ 0.2
FIVE | ≤ 0.2
CKST | ≤ 0.2
TSTC | ≤ 0.2
EMHY | ≤ 0.2
HNLL | ≤ 0.2
PPPM | ≤ 0.2
LYYC | ≤ 0.2
GQSM | ≤ 0.2
RENV | ≤ 0.2
RIKM | ≤ 0.2
TNQR | ≤ 0.2
FYTR | ≤ 0.2
PQVA | ≤ 0.2

Variant | one-hybrid fitness for binding NBS DNA
VMSA | ≤ 0.2
VTCS | ≤ 0.2
LCAW | ≤ 0.2
SMVP | ≤ 0.2
CNNV | ≤ 0.2
LINF | ≤ 0.2
VDMS | ≤ 0.2
PHRW | ≤ 0.2
SLKA | ≤ 0.2
THIF | ≤ 0.2
TTYV | ≤ 0.2
CPIS | ≤ 0.2
RSMH | ≤ 0.2
QRSF | 0.262
NQTF | ≤ 0.2
VYHA | ≤ 0.2
RLCR | 0.412
GMYA | ≤ 0.2
QQGF | ≤ 0.2
LKFS | ≤ 0.2
PNTF | ≤ 0.2
LIHA | ≤ 0.2
KSQI | ≤ 0.2
AEHS | ≤ 0.2

Variant | one-hybrid fitness for binding NBS DNA
TFRD | ≤ 0.2
DKPC | ≤ 0.2
NEQS | ≤ 0.2
QGDT | ≤ 0.2
LDIS | ≤ 0.2
GDDT | ≤ 0.2
KGYF | ≤ 0.2
RCEC | ≤ 0.2
CVAG | ≤ 0.2
VLVR | ≤ 0.2
HAWG | ≤ 0.2
ESVP | ≤ 0.2
DTHV | ≤ 0.2
APCC | ≤ 0.2
LMIQ | ≤ 0.2
ERGA | ≤ 0.2
LSDV | ≤ 0.2
QDTT | ≤ 0.2
LKWV | ≤ 0.2
LMQG | ≤ 0.2
HILM | ≤ 0.2
RYVF | ≤ 0.2
NIFS | ≤ 0.2
RYMC | ≤ 0.2

Variant | one-hybrid fitness for binding NBS DNA
MTAY | ≤ 0.2
QHSF | ≤ 0.2
RMDN | ≤ 0.2
CFLC | ≤ 0.2
RHIY | ≤ 0.2
VNEL | ≤ 0.2
LRVR | 0.207
VHLK | ≤ 0.2
AKYT | ≤ 0.2
IVQY | ≤ 0.2
ENKS | ≤ 0.2
RTIS | 0.34
PFAY | ≤ 0.2
NNTL | ≤ 0.2
YTDS | ≤ 0.2
EKSL | ≤ 0.2
ENLS | ≤ 0.2
LSHM | ≤ 0.2
DNDG | ≤ 0.2
GRIT | ≤ 0.2
TSMR | ≤ 0.2
FDNR | ≤ 0.2
PMAW | ≤ 0.2
WLHS | ≤ 0.2

Variant | one-hybrid fitness for binding NBS DNA
LVWT | ≤ 0.2
FTLT | ≤ 0.2
TLSF | ≤ 0.2
AQPS | ≤ 0.2
WADG | ≤ 0.2
PSFV | ≤ 0.2
VRKH | 0.208
TMPM | ≤ 0.2
ISKS | ≤ 0.2
HEER | ≤ 0.2
MQLP | ≤ 0.2
WNHC | ≤ 0.2
LCNM | ≤ 0.2
PCCC | ≤ 0.2
CDHF | ≤ 0.2
LYVG | ≤ 0.2
GHND | ≤ 0.2
FKPT | ≤ 0.2
YHLT | ≤ 0.2
TITR | ≤ 0.2
TGHF | ≤ 0.2
QCNC | ≤ 0.2
HDRT | ≤ 0.2
TGHS | ≤ 0.2

Variant | one-hybrid fitness for binding NBS DNA
HNRP | ≤ 0.2
DNYM | ≤ 0.2
SWQI | ≤ 0.2
RPLY | ≤ 0.2
YHCN | ≤ 0.2
LRNS | ≤ 0.2
CVLG | ≤ 0.2
QPGV | ≤ 0.2
ENRS | ≤ 0.2
RGTV | ≤ 0.2
QCMV | ≤ 0.2
SKST | ≤ 0.2
IEIW | ≤ 0.2
AQLR | ≤ 0.2
FFRV | ≤ 0.2
TWLS | ≤ 0.2
PQQP | ≤ 0.2
TRYC | ≤ 0.2
QTNR | 0.936
AQPW | ≤ 0.2
PKDC | ≤ 0.2
RLDQ | ≤ 0.2
KLQT | ≤ 0.2
DRGC | ≤ 0.2

Variant | one-hybrid fitness for binding NBS DNA
RPHG | ≤ 0.2
DMYS | ≤ 0.2
LFQS | ≤ 0.2
QAEM | ≤ 0.2
ARRD | ≤ 0.2
TRLP | ≤ 0.2
PHRK | ≤ 0.2
KSKH | ≤ 0.2
NRTI | ≤ 0.2
YSCT | ≤ 0.2
CTDS | ≤ 0.2
NMFN | ≤ 0.2
CGRV | ≤ 0.2
LLTG | ≤ 0.2
YRDT | ≤ 0.2
IGPL | ≤ 0.2
HIPL | ≤ 0.2
APDR | ≤ 0.2
ISHT | ≤ 0.2
QPAK | ≤ 0.2
GFQS | ≤ 0.2
ASSY | ≤ 0.2
GDRV | ≤ 0.2
LSTM | ≤ 0.2

Variant | one-hybrid fitness for binding NBS DNA
MAIC | ≤ 0.2
LPPE | ≤ 0.2
CRGG | ≤ 0.2
ELRY | ≤ 0.2
YMLN | ≤ 0.2
REQG | ≤ 0.2
TSKC | ≤ 0.2
RVKN | 0.203
QMYN | ≤ 0.2
CRYG | ≤ 0.2
ALNF | ≤ 0.2
FMTP | ≤ 0.2
WNIV | ≤ 0.2
DTER | ≤ 0.2
PHTF | ≤ 0.2
LVLC | ≤ 0.2
RLTR | 0.443
TQNE | ≤ 0.2

— a collection of fitness landscapes (doi:10.1016/j.celrep.2020.107928)
